Assays:
[1] = biological target: EGFR (T790M, L858R) double mutant in NCI-H1975 cells (Homo sapiens, UniProt P00533, L858R/T790M); assay type: cell-based; conditions: 2 h incubation, read-out: Cell level EGFR phosphorylation IC50, NCI-H1975 (EGFR T790M/L858R)
[2] = biological target: EGFR (T790M, L858R) double mutant (Homo sapiens, UniProt P00533, L858R/T790M); test: HTRF kinase activity assay, EGFR (T790M, L858R) double mutant

## [2H]C([2H])([2H])N(C)CCN(C)c1cc(OC)c(Nc2nccc(-c3cn4c5c(cccc35)CCC4)n2)cc1NC(=O)C=C [Compound 11]
[1]
  IC50: 85.8 nM
[2]
  IC50: 8.07 nM

## [2H]C([2H])([2H])N(CCN(C)c1cc(OC)c(Nc2nccc(-c3cn4c5c(cccc35)CCC4)n2)cc1NC(=O)C=C)C([2H])([2H])[2H] [Compound 16]
[1]
  IC50: 94.9 nM
[2]
  IC50: 9.12 nM

## [2H]C([2H])([2H])N(CCN(C)C)c1cc(OC)c(Nc2nccc(-c3cn4c5c(cccc35)CCC4)n2)cc1NC(=O)C=C [Compound 24]
[1]
  IC50: 85.1 nM
[2]
  IC50: 5.02 nM

## [2H]C([2H])([2H])NCCN(C)c1cc(OC)c(Nc2nccc(-c3cn4c5c(cccc35)CCC4)n2)cc1NC(=O)C=C [Compound 34]
[2]
  IC50: 6.84 nM

Source: patent publication US10654851B2, “Deuterated 3-(4,5-substituted aminopyrimidine)phenyl derivatives and use thereof” (NANJING CHUANGTE PHARMACEUTICAL TECHNOLOGY CO., LTD, priority 2016, dated 2020)
